Reference: publication PMC10987633, “Structural basis for RAD18 regulation by MAGEA4 and its implications for RING ubiquitin ligase binding by MAGE family proteins” (The EMBO Journal, 2024)

Target: the molecule itself
Test: AUC; sedimentation velocity of the RAD18/RAD6 complex, 0.5 mg/ml, 42,000 rpm, 4 °C, SEC buffer; RAD18 dimer within the complex

B1: His-tagged full-length RAD18 wild type (enzyme)
chain: not shown
notes: RAD18, RING E3 ubiquitin ligase, human, Uniprot […], […], full length; Cloned into PET15C; Dimer in the RAD18/RAD6 complex by AUC and mass photometry; also called RAD18 WT; FL RAD18; source: E. coli BL21star; co-expressed with untagged MAGEA4, in cleared lysate (His pull-down); co-expressed with RAD6 and purified as RAD18/RAD6 (TALON, SEC); not shown: His tag, N-terminal, kept
How did the “stoichiometry N” value turn out when B1 was run?
Its value is 2.
